# Read counts are not given, so values of variants with three or more changes are uncertain.
# B1: LINE1-mini (parent)
# chain: GGCAGAGCUCAACACAGCGUGGCAAAGUGGCUGUGGCUAGACUGCC
# Variants of: B1
# Test: self-cleavage, relative activity (ratio to wild type); higher = more cleavage; in vitro, sequencing; the parent is a self-cleaving ribozyme
row,Variant,self-cleavage
1,GGCAAAGCUCAUCACAGCGUGGCAAAGUGGCUGUGGCUACACUGCC [G5A A12U G40C],0.01
2,GGCAGAGCUCAACACCGCGUGGAAAAGUGACUGUGGCUAUACUGCC [A16C C23A G30A G40U],0.08
3,GGCAGAGAUCAACCCAGCGUGGCAAAGUGGCUGUGGCUAGACUUCC [C8A A14C G44U],0.04
4,GGCAGAGCUCCAAACAGCGUGGUAAAGUGGGUGUGGCUAGACUGCC [A11C C13A C23U C31G],0.05
5,GGGAGAGAUCAACACAGCGUGGCCAAGUGACUGUGGCUAGACUGCC [C3G C8A A24C G30A],0.6
6,GGCAUAGCUCAACACAUCGUGGCAAAGUGGCUGUGGCUAGCCUGCC [G5U G17U A41C],0.04
7,GGCAGAGCGCAACACAUCGUGGCAAAGUGGCUGAGGCUAGACCGCC [U9G G17U U34A U43C],0.05
8,AGCAGACCUCAACACAGCUUAGCAAAGUGGCUGUGGCUAGACUGAC [G1A G7C G19U G21A C45A],1.39
9,GGCAGAGCUAAACACAGGGUGGUAAAGUGGCUGAGGCUAGAGUUCC [C10A C18G C23U U34A C42G G44U],0
10,GGGAGAGCACAACACAGCGUGGCAAAGUGGCUGUGGCUAUACUGCC [C3G U9A G40U],0.04
11,GGCAGAGCUCAACACAGCGUGACAAAGUGGUUGUGGCUAAACUGCC [G22A C31U G40A],0.03
12,AGCAGAGCUCAACACAGCGUGGCAAAGUGGCUAUGCCUAGACUGUC [G1A G33A G36C C45U],0.02
13,GGCUGAGCUCAACAAAGCGUUGCAAAGUGGCUGUGGCUAGACUGCC [A4U C15A G21U],0.13
14,GGCAGAGAUCAACCCAGCGGGACAAAGUGGCUGUGGCUAGACUGCC [C8A A14C U20G G22A],0.09
15,GGCAGUGCUCAACACAGCGUGGCGAAGUGGCUGUGGCUCGACUGCU [A6U A24G A39C C46U],0.05
16,GGUAGUGCUCACCACAGCGUGGCAAAGUCGCUGUGGCUAGACUGCC [C3U A6U A12C G29C],0.02
17,GGCACAGCUAAACACACCGUGGCAAAAUGGCUGUGGCUAGACUGCC [G5C C10A G17C G27A],0.02
18,GGAAGAGCUCAACACUGCGUGGCAAAGUGGCUGUGGCUAGACAGCC [C3A A16U U43A],0.13
19,GGCAGAGCUCAGAACACCGUGGCAAAGUGGCUGUGGCUAGAUUGCC [A12G C13A G17C C42U],0.01

row,Variant,self-cleavage
1,GGAAGAGCUAAACACAGCGUUGCAAAGUGGCUGUGGCUAGAUUGUC [C3A C10A G21U C42U C45U],0.04
2,GGCAGGGCUCAACACAGCGUGACGAAGUGGCUGUGGCUCGACUGCC [A6G G22A A24G A39C],0.05
3,GGCCGAGCUCAAAACAGCGUGGCAAAGUGGCAGUGGCUAGACUGCC [A4C C13A U32A],0.05
4,GGCCGAGCUUUACACAGCGUGGCAAGGUAGCUGUGGCUAGACUGCC [A4C C10U A11U A26G G29A],0.03
5,GGUAGAGCUCAACACAGCGUGGCCAAGUGGCUGUGGCUAGAGUGGC [C3U A24C C42G C45G],0.05
6,GGCAGAGCUCGACACAGCGCGGCAAAGUUGUUGUGGCUAGACUGCC [A11G U20C G29U C31U],0.02
7,GGCAGAGCUCAACACAGCGUGACAAACUGGCUGUUGCUAGACUGCC [G22A G27C G35U],0.09
8,GGCAGAGCUCAACAUAGCGUGGCAAAGAGGCUGUGACUAGACUGCC [C15U U28A G36A],0.13
9,UCCAGAGCACAACACAGCAUGGCAAAGUGGCUGUGGCUAGCCUGCC [G1U G2C U9A G19A A41C],0.01
10,GGCAGAGCUCAACACAGCGUGCUAAAGUGGCUGUGGCUAGACUGUC [G22C C23U C45U],0.56
11,GCCAGAGCUCAACACAGCGUGCCAAAGUGGCUGUUGCGUGACUGCC [G2C G22C G35U U38G A39U],0.08
12,GGCAGAACUCAACACAGCGUGGUAAAGUGGCUGUGGCUAGGCUGCC [G7A C23U A41G],0.58
13,GGCAGAGCUCAAGACAGCGUGGCACAGUGGCUGUGACUAGACUGCC [C13G A25C G36A],0.03
14,GGCAGAGCUCAACACAGCCUGGCAUAGUGGCUGGGGCUAGACUGCC [G19C A25U U34G],0.09
15,GGCUGAGCUCAACACAGCGUGGCUAACUGGCUUUGGCUAGACUACC [A4U A24U G27C G33U G44A],0.06
16,GGCAGAGCUCAUCACAGCGCGGUAAAGUGGCUGUGGCUAGACUGCC [A12U U20C C23U],0.2
17,GGCAGAGCUCAACAAAGCGUCGCAAAGUGCCUGUGGAUAGACAGCC [C15A G21C G30C C37A U43A],0.03
18,GGCAGAACUCAACACAGCGUGGCAAAGUGGCUGUGGCUUUACUUCC [G7A A39U G40U G44U],0.47
19,GUCAGAGCUCAACACAGCGUGGGAAAGUGGCUGUGGCUCGACUGCC [G2U C23G A39C],0.02

row,Variant,self-cleavage
1,GGCAGAGCUGAACACAGCGUGGAAAAGUGGCUGUGUCUAGACUGCC [C10G C23A G36U],0.02
2,GGCAGAGCUAAACACAGCUUGGCAAAGUGGCUGUGGAUAGACUGCC [C10A G19U C37A],0
3,GUCAGAGCUCAACACAACGUGGCGAAGUGGCUGUGGCUAGACUGCC [G2U G17A A24G],0.03
4,CGCAGAGCUCAACGCAGCGUGGCUGAGUGGCUGUGGCUAGACUGCC [G1C A14G A24U A25G],0.02
5,GGCAGAGCUCAACGCAGAGUGGCACGCUGGCUGUCGCUAGACUGCC [A14G C18A A25C A26G G27C G35C],0.02
6,GGCAGAGCUCGACACAGCUUGGGAAAGUGGCUCUGGCUAGACUGCC [A11G G19U C23G G33C],0
7,GGCAGAGCUAAACACACCGUGCCAAAGUGGCUGUGGCUAGACUCCC [C10A G17C G22C G44C],0.04
8,GGGAGACCUCAACACAGCGUGGCAAAGUGGCUGUGGCAAGACUUCC [C3G G7C U38A G44U],0.02
9,GGUAGAGCUCUACACAGCGUGGCAAAGUGGCUGUGGCUAGACUCCC [C3U A11U G44C],0.02
10,GGCAGAGCUCAACACAACGUGGCAAAGUGGCUGGGAUUAGACUGCC [G17A U34G G36A C37U],0.03
11,GGCAGAGCUCAACACAGCAUGGCAACGUGGCUGUGGCUAUACUGCC [G19A A26C G40U],0.13
12,GGCAGAGCUCAACCCAGCGGGGCAAAGUGCCUCUGGCUAGACUGCC [A14C U20G G30C G33C],0.01
13,GGCCGAGCUCAACACUGCGUGGCAUAGUGGCUGUGGCUAGACUGCC [A4C A16U A25U],0.21
14,GGCAGAGUUCAACACAGAGUGGCACAGUGGCUGUGGCUAGACUGCG [C8U C18A A25C C46G],0.03
15,GGCAAAGCUCAACCCAGCGUAGCAAAGUGGCUGUGGCUAGACUCCC [G5A A14C G21A G44C],0.02
16,GGCAGAGCUCAACACAGCGUGGCCAAGUGGCUAUGGCUAAACUGCC [A24C G33A G40A],0.05
17,GGCAGAGUUCCACGCAGCGUGGCAAAGUGGCUGUGGCUUGACUGCC [C8U A11C A14G A39U],0.01
18,GGCAGAGAGCAAAACAGCGUGGCAAAGUGGCUGUGGCUAGACUGCC [C8A U9G C13A],0.27

# From the RNAGym collection of RNA variant scans (doi:10.7554/elife.90254)
